The campaign covered roughly 310,000 compounds. About 14,000 (4.5%) showed an effect of 50% or more. Effects have a minus sign here. The list shows a part of the results.
What follows are compounds tested against human ether-à-go-go-related gene (hERG) potassium channel (human, UniProt Q12809) (assay: primary screen, population patch clamp on CHO cells stably expressing hERG).
Sequence of human ether-à-go-go-related gene (hERG) potassium channel (Q12809 whole entry, looked up): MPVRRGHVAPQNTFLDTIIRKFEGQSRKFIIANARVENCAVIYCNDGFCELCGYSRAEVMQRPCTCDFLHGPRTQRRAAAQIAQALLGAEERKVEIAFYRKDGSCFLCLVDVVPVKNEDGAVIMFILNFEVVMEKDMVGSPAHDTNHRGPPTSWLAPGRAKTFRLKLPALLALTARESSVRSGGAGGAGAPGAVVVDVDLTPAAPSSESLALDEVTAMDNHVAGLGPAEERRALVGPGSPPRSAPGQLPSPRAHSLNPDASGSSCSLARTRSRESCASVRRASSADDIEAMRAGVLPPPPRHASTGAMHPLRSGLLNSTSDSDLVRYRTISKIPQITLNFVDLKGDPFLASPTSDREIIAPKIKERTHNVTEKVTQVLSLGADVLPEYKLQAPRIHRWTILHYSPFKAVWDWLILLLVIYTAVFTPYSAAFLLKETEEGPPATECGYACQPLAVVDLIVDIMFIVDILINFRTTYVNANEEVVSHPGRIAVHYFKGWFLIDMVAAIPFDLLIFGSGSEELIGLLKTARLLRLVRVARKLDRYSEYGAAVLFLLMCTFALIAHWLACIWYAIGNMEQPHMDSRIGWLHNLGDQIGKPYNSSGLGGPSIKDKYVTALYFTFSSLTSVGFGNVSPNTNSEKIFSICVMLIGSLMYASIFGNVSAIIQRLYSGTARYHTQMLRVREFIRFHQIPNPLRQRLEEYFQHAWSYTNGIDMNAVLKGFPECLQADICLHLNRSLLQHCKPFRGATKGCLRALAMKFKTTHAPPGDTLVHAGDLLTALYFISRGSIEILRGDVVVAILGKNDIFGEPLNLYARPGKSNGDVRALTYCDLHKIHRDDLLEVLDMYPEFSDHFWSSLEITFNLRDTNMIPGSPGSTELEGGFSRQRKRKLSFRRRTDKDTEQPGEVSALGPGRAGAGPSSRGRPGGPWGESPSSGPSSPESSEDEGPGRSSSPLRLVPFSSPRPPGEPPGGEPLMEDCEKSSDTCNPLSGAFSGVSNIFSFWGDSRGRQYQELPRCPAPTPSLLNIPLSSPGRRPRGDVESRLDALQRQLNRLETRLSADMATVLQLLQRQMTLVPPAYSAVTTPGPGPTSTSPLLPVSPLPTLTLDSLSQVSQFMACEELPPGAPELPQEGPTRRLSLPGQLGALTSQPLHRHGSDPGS
For `CCCCC1=CC2=CC(=O)C(C)(OC(=O)CC)C(=O)C2=CN1c1ccc(OC)cc1` (centres unmarked), the “hERG current change (%, negative = inhibition) at 10uM” value was -13%. With `CCSc1nc(-c2ccco2)ccc1C#N` the “hERG current change (%, negative = inhibition) at 10uM” value was -0.262%. `CN(C(=O)CN1C(=O)/C(=C/c2ccccc2F)SC1=S)C1CCS(=O)(=O)C1` (centres unmarked) was tested, and the “hERG current change (%, negative = inhibition) at 10uM” value was 20.3%. In the case of `O=C(O)c1cc(N2C(=O)C3C4C=CC(C4)C3C2=O)ccc1NCc1cccnc1` (centres unmarked), the “hERG current change (%, negative = inhibition) at 10uM” value was -4.64%. With `COC(=O)c1ccccc1C(=O)N1CCC(CCC(=O)NC2CC2)CC1` the “hERG current change (%, negative = inhibition) at 10uM” value was 10.9%. With `COc1ccc(-n2nnnc2CNC(=O)c2ccc3c(c2)OCO3)cc1` the “hERG current change (%, negative = inhibition) at 10uM” value was 13.9%. `COc1ccc2c(C)cc(C)nc2n1` was tested, and the “hERG current change (%, negative = inhibition) at 10uM” value was -0.339%. `COCc1cc(=O)[nH]c2c1c(-c1ccccc1)nn2C` was tested, and the “hERG current change (%, negative = inhibition) at 10uM” value was 12.7%. In the case of `Cc1cc(=O)n2nc(N3CCCC3C(=O)Nc3ccccc3C)sc2n1` (centres unmarked), the “hERG current change (%, negative = inhibition) at 10uM” value was 6.27%. With `c1cnc2ccc(C(c3nnnn3C3CCCCC3)N3CCN4CCCC4C3)cc2c1` (centres unmarked) the “hERG current change (%, negative = inhibition) at 10uM” value was -109%. For `Cc1ccc(OCC(=O)Nc2c(C)ccc3nsnc23)cc1`, the “hERG current change (%, negative = inhibition) at 10uM” value was -12.8%. For `CCC(C)N(C(=O)COC(=O)CNC(=O)c1ccccc1F)C1CCS(=O)(=O)C1` (centres unmarked), the “hERG current change (%, negative = inhibition) at 10uM” value was 4.36%. `c1ccc(-c2cn3cccnc3n2)cc1` was tested, and the “hERG current change (%, negative = inhibition) at 10uM” value was 5%. For `COc1ccc(S(=O)(=O)Nc2ncccc2C)c2ccccc12`, the “hERG current change (%, negative = inhibition) at 10uM” value was 16.7%. In the case of `CCCCNC(C(=O)Nc1cccc(S(=O)(=O)N2CCOCC2)c1)c1ccccc1` (centres unmarked), the “hERG current change (%, negative = inhibition) at 10uM” value was -50.7%. In the case of `CCOc1ccc(N(C)S(=O)(=O)c2ccc(C)c(C(=O)NCc3ccccc3OC)c2)cc1`, the “hERG current change (%, negative = inhibition) at 10uM” value was -6.23%. In the case of `COc1ccc(C(=O)CSc2nnc(-c3cccnc3)n2Cc2ccco2)cc1`, the “hERG current change (%, negative = inhibition) at 10uM” value was -42.9%. With `CCC1(C)Cc2c(sc3nc(SC)n(Cc4ccccc4)c(=O)c23)CO1` (centres unmarked) the “hERG current change (%, negative = inhibition) at 10uM” value was 6.63%. For `O=C(COc1ccc(Br)cc1Br)NC(=S)N1CCCc2ccccc21`, the “hERG current change (%, negative = inhibition) at 10uM” value was -2.7%. In the case of `Cc1ccc(S(=O)(=O)NCC(=O)N(CC(=O)NCC2CCCO2)c2cccc(F)c2)cc1` (centres unmarked), the “hERG current change (%, negative = inhibition) at 10uM” value was 1.45%. `O=C(CCN1CCOCC1)Nc1cccc(Br)c1` was tested, and the “hERG current change (%, negative = inhibition) at 10uM” value was -3.24%. `CCN(C1CCCCC1)S(=O)(=O)CCNC(=O)c1ccc2c(c1)OCO2` was tested, and the “hERG current change (%, negative = inhibition) at 10uM” value was 11.3%. In the case of `O=C(Nc1cccc2c1CCCC2)c1ccccc1F`, the “hERG current change (%, negative = inhibition) at 10uM” value was 17.9%. With `COc1ncnc2c1oc1nc(CC(C)C)c3c(c12)CC(C)(C)OC3` the “hERG current change (%, negative = inhibition) at 10uM” value was -26.7%. With `COC(=O)c1[nH]c2ccccc2c1Sc1ccccc1` the “hERG current change (%, negative = inhibition) at 10uM” value was 11.9%. `CC(=O)Nc1ccc(NC(=O)c2ccc(C)c(S(=O)(=O)Nc3cccc(C)c3)c2)cc1` was tested, and the “hERG current change (%, negative = inhibition) at 10uM” value was 17.5%. `COc1cccc(C(=O)N2CCn3c2nc2ccccc23)c1` was tested, and the “hERG current change (%, negative = inhibition) at 10uM” value was -33.4%. For `O=C(NC(=S)Nc1ccccc1N1CCOCC1)c1ccccc1F`, the “hERG current change (%, negative = inhibition) at 10uM” value was 3.59%. In the case of `CCOc1cc(C)c(S(=O)(=O)N2CCCCC2)cc1C`, the “hERG current change (%, negative = inhibition) at 10uM” value was 27%. For `CSc1ccc(CN2CCC(n3nccc3NC(=O)C3CCOC3)CC2)cc1` (centres unmarked), the “hERG current change (%, negative = inhibition) at 10uM” value was -67.8%. `COc1cccc(-c2noc(C3CCCN(C(=O)c4ccc(F)cc4F)C3)n2)c1` (centres unmarked) was tested, and the “hERG current change (%, negative = inhibition) at 10uM” value was -35.9%. `COc1cc(C(CCN2CCCCC2)c2c(OC)cc(OC)c3c(-c4ccccc4)cc(=O)oc23)cc(OC)c1OC` (centres unmarked) was tested, and the “hERG current change (%, negative = inhibition) at 10uM” value was -67%. For `Cn1c(SCC(=O)NC2CC2)nnc1-c1ccccc1`, the “hERG current change (%, negative = inhibition) at 10uM” value was 4.67%. In the case of `O=C(NCc1cccc(F)c1)C1CCN(C(=O)c2sccc2-n2cccc2)CC1`, the “hERG current change (%, negative = inhibition) at 10uM” value was -18%. `O=C(NCCN1CCOCC1)c1cccn2c(=O)c3c4c(sc3nc12)CCCC4` was tested, and the “hERG current change (%, negative = inhibition) at 10uM” value was -25.5%. In the case of `CC(=O)c1c(C)[nH]c(C(=O)N(CCc2ccccc2)Cc2ccccc2)c1C`, the “hERG current change (%, negative = inhibition) at 10uM” value was -18.1%. `CC(=O)Nc1ccc(S(=O)(=O)N(C)C2CCN(C)CC2)cc1` was tested, and the “hERG current change (%, negative = inhibition) at 10uM” value was 18.1%. With `CN1CC(C(=O)Nc2ccc(F)c(Cl)c2)CC1=O` (centres unmarked) the “hERG current change (%, negative = inhibition) at 10uM” value was 12.1%. In the case of `OC1(c2cccs2)CN(c2ccc(Br)cc2)C2=[N+]1CCCS2.[Br-]` (centres unmarked), the “hERG current change (%, negative = inhibition) at 10uM” value was -72.1%. `COC(=O)c1ccc(OC(=O)/C=C/c2ccco2)cc1` was tested, and the “hERG current change (%, negative = inhibition) at 10uM” value was 14.6%. `Cc1ccc(-c2nc(SCC(=O)NCC3CCCO3)c(-c3ccccc3)[nH]2)cc1` (centres unmarked) was tested, and the “hERG current change (%, negative = inhibition) at 10uM” value was 7%. With `O=C1c2oc3ccccc3c(=O)c2C(c2cccnc2)N1Cc1ccco1` (centres unmarked) the “hERG current change (%, negative = inhibition) at 10uM” value was -13.5%. In the case of `O=C(CN1CCN(c2ccccc2)CC1)N1CCN(c2ccccc2)CC1`, the “hERG current change (%, negative = inhibition) at 10uM” value was -41.5%. With `O=C(COc1ccccc1-c1ccccc1)NN=C1CCCC1` the “hERG current change (%, negative = inhibition) at 10uM” value was -6.03%. `O=C(CSCc1c(Cl)cccc1Cl)Nc1nccs1` was tested, and the “hERG current change (%, negative = inhibition) at 10uM” value was -19%. With `Cc1onc(-c2ccc(Cl)cc2)c1-c1ccnn1S(=O)(=O)c1cccc(C(F)(F)F)c1` the “hERG current change (%, negative = inhibition) at 10uM” value was -8.84%. For `OCCN1CCN(c2ncnc3c2sc2nc(N4CCOCC4)c4c(c23)CCC4)CC1`, the “hERG current change (%, negative = inhibition) at 10uM” value was -22.1%. `CCCCOCCCNC(=O)/C=C/c1ccccc1Cl` was tested, and the “hERG current change (%, negative = inhibition) at 10uM” value was -11.7%. With `Cn1c(Cn2c(=O)sc3ccccc32)nnc1SCC(=O)NCc1ccco1` the “hERG current change (%, negative = inhibition) at 10uM” value was -12.6%. In the case of `Cn1c(=O)[nH]c(=O)c2c1nc(NCCc1ccccc1)n2CC(O)COc1ccccc1` (centres unmarked), the “hERG current change (%, negative = inhibition) at 10uM” value was 5.02%. For `NC(=O)NC(c1ccccc1)c1ccccc1`, the “hERG current change (%, negative = inhibition) at 10uM” value was -15.6%. In the case of `CN(C)c1ccc(/C=N\NC(=O)CC#N)cc1`, the “hERG current change (%, negative = inhibition) at 10uM” value was 13.3%. With `COc1cccc(/C=N/NC(=O)CNC(=O)c2cccs2)c1O` the “hERG current change (%, negative = inhibition) at 10uM” value was 9.92%. `NC(=O)C1(NC(=O)[C@@H]2CC3(CC(c4cccc(NC(=O)c5cc([N+](=O)[O-])cc([N+](=O)[O-])c5)c4)=NO3)CN2C(=O)c2ccccc2)CC1` (some centres unmarked) was tested, and the “hERG current change (%, negative = inhibition) at 10uM” value was 10.6%. For `Br.CCc1nnc2n1N=C(c1ccccc1)CS2`, the “hERG current change (%, negative = inhibition) at 10uM” value was 11.5%. In the case of `CCOC(=O)C1CCN(C(=O)c2ccc(CNS(=O)(=O)c3ccc(C)cc3)cc2)CC1`, the “hERG current change (%, negative = inhibition) at 10uM” value was -31.4%.

— paper PMC4336329 (PLoS ONE, 2015)
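Further: peak tail current of the secondary pulse compared with the same well before compound.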
